# From the supplement of paper PMC3334620
# In all, about 33,000 sequences were measured (“E-score (-0.5 to 0.5)”: median about -0.012, highest 2% from about 0.29 on). The list shows a part of the results.
# Target: T1, Ybr033w (UniProt P38073)
# T1 sequence: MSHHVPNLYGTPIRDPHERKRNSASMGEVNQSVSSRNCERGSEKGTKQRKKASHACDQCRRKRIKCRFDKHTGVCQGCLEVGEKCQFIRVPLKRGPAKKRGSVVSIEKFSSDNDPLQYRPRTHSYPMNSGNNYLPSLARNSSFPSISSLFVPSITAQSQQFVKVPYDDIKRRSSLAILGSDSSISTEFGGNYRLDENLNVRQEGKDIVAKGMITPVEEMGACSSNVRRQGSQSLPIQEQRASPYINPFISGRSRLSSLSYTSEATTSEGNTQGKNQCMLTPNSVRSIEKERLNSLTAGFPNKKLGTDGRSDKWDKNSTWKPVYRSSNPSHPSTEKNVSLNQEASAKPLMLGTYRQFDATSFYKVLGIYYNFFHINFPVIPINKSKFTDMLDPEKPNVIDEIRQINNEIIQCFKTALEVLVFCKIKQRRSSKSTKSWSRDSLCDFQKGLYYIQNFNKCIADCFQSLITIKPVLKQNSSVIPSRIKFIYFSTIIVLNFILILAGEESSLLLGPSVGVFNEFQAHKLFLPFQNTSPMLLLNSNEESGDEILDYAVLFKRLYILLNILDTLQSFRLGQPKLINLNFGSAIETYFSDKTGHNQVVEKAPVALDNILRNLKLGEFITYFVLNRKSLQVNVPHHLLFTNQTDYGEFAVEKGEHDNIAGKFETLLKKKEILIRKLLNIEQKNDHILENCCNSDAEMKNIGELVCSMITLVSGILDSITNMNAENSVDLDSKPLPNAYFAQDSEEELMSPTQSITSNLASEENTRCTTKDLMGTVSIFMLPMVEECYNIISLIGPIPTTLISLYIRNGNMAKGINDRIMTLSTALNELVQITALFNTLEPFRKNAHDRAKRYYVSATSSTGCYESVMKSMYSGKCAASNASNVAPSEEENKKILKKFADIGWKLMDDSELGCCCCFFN
# Assay: PBM E-score (8-mer binding enrichment) (E-score (-0.5 to 0.5)); higher = stronger / more preferred TF binding; most listed sequences are background and not binding sites
# Conditions: protein concentration: 200 nM; construct: GST-full length
# Experimental: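 Universal 'all 10-mer' protein binding microarrays (Agilent AMADID 015681) probed with GST-tagged S. cerevisiae TFs (full-length or DBD) made by in vitro transcription/translation (PURExpress), about 100-200 nM. Bound TF was detected with fluorescent anti-GST. Each ungapped 8-mer (which stands for itself and its reverse complement) is scored by the PBM enrichment score (E-score), a modified Wilcoxon-Mann-Whitney statistic from -0.5 to +0.5, computed with the Universal PBM Analysis Suite. Scale: above 0.35 generally sequence-specific binding.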
row,Sequence,PBM E-score
1,CGAGCTTA,-0.0148
2,GCCGTCAA,-0.0411
3,AAGCTTGT,0.158
4,GTTTGGCA,-0.0616
5,CTTCTGCC,-0.103
6,AAGGTTTG,0.227
7,AGCGACAA,-0.0929
8,GACGGCTC,-0.2
9,CTGGAGCA,-0.00044
10,CCTATCTC,-0.0727
11,TATGGCAA,-0.151
12,AAATACCC,0.149
13,CTACGTAA,-0.0597
14,ATGCCTGC,-0.0655
15,CATACAGA,0.157
16,ATGGAGGC,-0.199
17,AAGTTCGA,0.203
18,GATTAAAC,0.17
19,ATGTCGTA,0.0621
20,AGAACCTG,-0.156
21,CGTGTCCA,-0.102
22,TAACGATA,0.292
23,AGGGACTC,-0.223
24,AGGGCGGA,-0.231
25,ACCAAGTG,-0.0899

row,Sequence,PBM E-score
1,GTCGGCGA,-0.258
2,TGATCGAA,-0.0706
3,CAGCTCAG,-0.144
4,CCTGTCCC,-0.255
5,ATATTTCC,0.349
6,AATGGTGT,0.088
7,TATGCCGA,0.0683
8,ACAGCCTC,-0.291
9,CATTTTAG,0.234
10,CGCTCCAC,-0.163
11,TCTTTACA,0.196
12,ATGGCATG,0.0798
13,AGCTAAAA,0.137
14,ATTCGAAG,0.00162
15,TAGAGCAA,0.0322
16,AAGGCTGT,-0.138
17,CGCGGTAA,0.12
18,AGGGCCTC,-0.226
19,GACCCTAC,-0.198
20,GGTCGAAA,-0.22
21,ATAGCGAT,-0.15
22,GGTACTCA,0.0898
23,TATCACAA,0.18
24,CTTTTGTC,0.0178
25,GCACCATA,0.155

row,Sequence,PBM E-score
1,CTGCCGTA,-0.0876
2,GGTTCGTA,0.119
3,CCCTTCAC,-0.122
4,GCAAAGAC,-0.0169
5,AACAGACG,-0.113
6,AAACTTCG,0.0988
7,GCATTCAC,0.216
8,ACATCGGC,-0.0427
9,AAGAATAA,0.222
10,ACAATAGT,0.161
11,CTACATGC,-0.00181
12,AAGGAGCT,-0.219
13,GTCGTATA,0.0833
14,ACGGCAAG,-0.282
15,CCAGACGA,-0.125
16,ATCTGGCA,-0.0201
17,ACTTGGAA,0.022
18,AATGCCAC,-0.0522
19,AACTCAAG,0.204
20,CGAAAGCG,-0.174
21,ACTTGGCG,-0.111
22,GCGACCCC,-0.204
23,AGTTGGTA,0.169
24,AAGAATAG,0.204
25,AATGGAAC,0.178

row,Sequence,PBM E-score
1,ACCAGAGC,0.0226
2,GGGACATA,0.0156
3,CCTTGTCG,-0.192
4,ATCTCATG,0.0775
5,AGGGCTCC,-0.356
6,AATTAAGT,0.305
7,CAGATCTG,-0.118
8,AATTCAGA,0.177
9,CGACAAAC,0.0224
10,ACTGGAGC,-0.219
11,CGTCGTAC,-0.016
12,GGCACGAA,0.0344
13,GGAATTCA,0.288
14,ACAAAACT,0.153
15,CAAAAGCG,-0.0333
16,TGACCTCA,-0.17
17,CACGGGGG,-0.32
18,GGAGTACA,-0.0776
19,CAATGCTG,0.089
20,CTTGGCAA,-0.103
21,GAATAGAC,-0.054
22,GTTGATCA,0.125
23,CCAAAAGG,0.00511
24,ACATAATA,0.247
25,CCTCAATC,0.0546

row,Sequence,PBM E-score
1,ACTGATGA,0.106
2,GAAACCGA,-0.0906
3,GTGGGTGA,-0.00057
4,AATCTAGG,0.135
5,AGCGTGTA,-0.0942
6,ACAGTGTG,0.024
7,CATCGGAG,-0.0156
8,CTGATCAA,-0.00675
9,CTGCAAGC,-0.102
10,CCAGCAGA,0.00492
11,TATAAACA,0.247
12,TATGTGCA,-0.0361
13,CGCTGACG,-0.218
14,AATCTGCC,0.138
15,GTCTCCGA,0.0658
16,ACTGGCCA,-0.174
17,AAATTAAA,0.339
18,ACGAAACA,0.109
19,GTCTGCCA,-0.11
20,AACGTCTT,0.0136
21,GTACCCTA,-0.0808
22,GCATCAGA,0.133
23,CCCCGGAG,-0.0119
24,AATTCTCT,-0.229
25,GTCACAAA,0.032

row,Sequence,PBM E-score
1,GCCGCTCC,-0.391
2,ACACCTGT,-0.021
3,CAGTTTGA,0.206
4,CGCTGCAA,0.0965
5,AAGGCGCT,-0.05
6,CCGTTCTC,-0.043
7,CGCAGCCG,-0.311
8,AACTGCTG,0.0765
9,AGAGGGTA,-0.0604
10,AAATAGGA,0.16
11,CACTGACG,-0.253
12,GATAATTA,0.361
13,CGCTCAAA,0.061
14,CGTTAGCC,-0.0947
15,TAAGCGGA,0.00991
16,ACGCCACT,-0.0677
17,CCCAACCC,-0.0507
18,CAGAACTA,-0.0173
19,ATCCAATA,0.157
20,AGTGTACG,-0.041
21,AGCTACCG,-0.111
22,CGCCGGTC,-0.177
23,CCGAGCCC,-0.299
24,ATAGTTAA,0.189
25,GTTGAGCA,-0.0327

row,Sequence,PBM E-score
1,GAAAGGAC,0.107
2,GACAGCTC,-0.234
3,GATTGTGA,0.111
4,TACTCTCA,0.185
5,CGAAGCGC,-0.0184
6,GACAGGCC,-0.303
7,CGAAAGGC,-0.132
8,GCGGCAGA,-0.266
9,AGTTTGCC,0.107
10,AAAATTGA,0.131
11,TGGTCTAA,-0.0524
12,CTACTGTA,0.187
13,CCCTACCA,-0.0965
14,AACCGCAT,0.0575
15,AGTTCGCA,-0.053
16,ATCGCGAC,0.0512
17,CCCAACGG,-0.12
18,AGAGGACA,-0.0337
19,ATCTAACC,0.0416
20,GTGTCATA,0.164
21,CGAAGGCG,-0.0641
22,ACTAAACT,0.115
